Measured values published in the supplement of paper PMC8728848.
The other results are listed elsewhere or left out.

Columns and labels:
Assay in all cases: glycan array binding signal (z-score within array); higher = stronger binding
Conditions in all cases: glycan notation: IUPAC condensed, linker removed
[1] = molecular target: Gal3S(b1-3)[Fuc(a1-4)]GlcNAc
In short: (§1)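 Glycan array data came from 3228 arrays in the Consortium for Functional Glycomics database, and only arrays with an available protein sequence were kept. Glycan names were put into IUPAC-condensed notation, and columns mapping to the same glycan were averaged. The binding signal is a within-array Z-score, averaged across arrays of one protein sequence run at different concentrations or buffers and across linkers. A negative Z-score can be read as non-binding.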

Gal3S(b1-4)Glc = molecular target: Gal3S(b1-4)Glc
In short: as §1

Gal3S(b1-4)Glc6S = molecular target: Gal3S(b1-4)Glc6S
In short: as §1

Gal3S(b1-4)GlcNAc = molecular target: Gal3S(b1-4)GlcNAc
In short: as §1

[2] = molecular target: Gal3S(b1-4)[Fuc(a1-3)]Glc6S
In short: as §1

[3] = molecular target: Gal3S(b1-4)[Fuc(a1-3)]GlcNAc
In short: as §1

[4] = molecular target: Gal3S(b1-4)[Fuc(a1-3)]GlcNAc6S
In short: as §1

Gal3S4S(b1-4)GlcNAc = molecular target: Gal3S4S(b1-4)GlcNAc
In short: as §1

Gal3S6S(b1-4)GlcNAc = molecular target: Gal3S6S(b1-4)GlcNAc
In short: as §1

Gal3S6S(b1-4)GlcNAc6S = molecular target: Gal3S6S(b1-4)GlcNAc6S
In short: as §1

Gal4S(b1-4)GlcNAc = molecular target: Gal4S(b1-4)GlcNAc
In short: as §1

Gal4S6S(b1-4)GlcNAc = molecular target: Gal4S6S(b1-4)GlcNAc
In short: as §1

Gal6P(b1-4)GlcNAc = molecular target: Gal6P(b1-4)GlcNAc
In short: as §1

Gal6S(b1-3)GlcNAc = molecular target: Gal6S(b1-3)GlcNAc
In short: as §1

Gal6S(b1-3)GlcNAc6S = molecular target: Gal6S(b1-3)GlcNAc6S
In short: as §1

Gal6S(b1-4)Glc = molecular target: Gal6S(b1-4)Glc
In short: as §1

Gal6S(b1-4)Glc6S = molecular target: Gal6S(b1-4)Glc6S
In short: as §1

Gal6S(b1-4)GlcNAc = molecular target: Gal6S(b1-4)GlcNAc
In short: as §1

Gal6S(b1-4)GlcNAc6S = molecular target: Gal6S(b1-4)GlcNAc6S
In short: as §1

GalNAc(a1-3)Gal = molecular target: GalNAc(a1-3)Gal
In short: as §1

GalNAc(a1-3)GalNAc = molecular target: GalNAc(a1-3)GalNAc
In short: as §1

[5] = molecular target: GalNAc(a1-3)GalNAc(b1-3)Gal(a1-4)Gal(b1-4)Glc
In short: as §1

[6] = molecular target: GalNAc(a1-3)GalNAc(b1-3)Gal(a1-4)Gal(b1-4)GlcNAc
In short: as §1

GalNAc(b1-3)Gal = molecular target: GalNAc(b1-3)Gal
In short: as §1

[7] = molecular target: GalNAc(b1-3)Gal(a1-4)Gal(b1-4)GlcNAc
In short: as §1

[8] = molecular target: GalNAc(b1-3)Gal(a1-4)Gal(b1-4)GlcNAc(b1-3)Gal(b1-4)Glc
In short: as §1

[9] = molecular target: GalNAc(b1-3)Gal(a1-6)Gal(b1-4)Glc
In short: as §1

GalNAc(b1-3)GalNAc = molecular target: GalNAc(b1-3)GalNAc
In short: as §1

GalNAc(b1-3)GlcNAc = molecular target: GalNAc(b1-3)GlcNAc
In short: as §1

GalNAc(b1-4)Gal(b1-4)Glc = molecular target: GalNAc(b1-4)Gal(b1-4)Glc
In short: as §1

B1: CvGal2 (Crassostrea virginica) (protein)
chain: MGSSHHHHHHSSGLVPRGSHMRIREAGKRKDTTKVYQIPDGLFPGQQVMLRGRVPWGSKSFSINFSATPRMGEGDILFHLNPRPSEGVCIRNALLNGSWGAEEKWQPYFPFDDGRSFSVKIEVTNDAFRTFVNGRPFVDFLHRTDFRAGKYLTLREGAEYYDVIFQSKPNIPLTTAIHNGMRIGKTIRIRGMCTAQDGFAINFNDNRNNIYFHFNARPAQRTVVRNSYFGSWGNEETAISKEFPFYPFLYFYASFVCMEDKFAVYVNDEHFIDFAHRGNPNNISVLQIKGSVNVLDTECLEPMGEDAMTEVDSGLENGDLFVLNGLMTERGKTFAVNFLNGFTENDDIALHFNPRKSTGEVVLNSRYGGAWQSEEKVALPGVFWSNRPLQVKVETKRNKFKIYVNGVDLAKYKIRGNVEDVHAVQVKGDVFLLETLLLKRLMKPVWERLTGGIRPGTWVTLQGTPKKNWQQFVVNFALDDTLDGDIAFHFNVRRGARQVVRNHRQSGAWGREETVTPFFAFDSEATFEIVFFVKEEKFLIYFNGKLFFEFVHRVPVERITHIYMDGDCNFYEPEVVI
glycan array binding signal (z-score) [1]: -0.325 | glycan array binding signal (z-score) (Gal3S(b1-4)Glc): 0.033 | glycan array binding signal (z-score) (Gal3S(b1-4)Glc6S): 0.689 | glycan array binding signal (z-score) (Gal3S(b1-4)GlcNAc): -0.322 | glycan array binding signal (z-score) [2]: -0.314 | glycan array binding signal (z-score) [3]: -0.323 | glycan array binding signal (z-score) [4]: -0.282 | glycan array binding signal (z-score) (Gal3S4S(b1-4)GlcNAc): -0.332 | glycan array binding signal (z-score) (Gal3S6S(b1-4)GlcNAc): -0.322 | glycan array binding signal (z-score) (Gal3S6S(b1-4)GlcNAc6S): -0.319 | glycan array binding signal (z-score) (Gal4S(b1-4)GlcNAc): -0.335 | glycan array binding signal (z-score) (Gal4S6S(b1-4)GlcNAc): -0.323 | glycan array binding signal (z-score) (Gal6P(b1-4)GlcNAc): -0.347 | glycan array binding signal (z-score) (Gal6S(b1-3)GlcNAc): -0.329 | glycan array binding signal (z-score) (Gal6S(b1-3)GlcNAc6S): -0.334 | glycan array binding signal (z-score) (Gal6S(b1-4)Glc): -0.331 | glycan array binding signal (z-score) (Gal6S(b1-4)Glc6S): -0.333 | glycan array binding signal (z-score) (Gal6S(b1-4)GlcNAc): -0.312 | glycan array binding signal (z-score) (Gal6S(b1-4)GlcNAc6S): -0.34 | glycan array binding signal (z-score) (GalNAc(a1-3)Gal): -0.134 | glycan array binding signal (z-score) (GalNAc(a1-3)GalNAc): -0.164 | glycan array binding signal (z-score) [5]: 0.523 | glycan array binding signal (z-score) [6]: 1.83 | glycan array binding signal (z-score) (GalNAc(b1-3)Gal): 0.085 | glycan array binding signal (z-score) [7]: -0.28 | glycan array binding signal (z-score) [8]: -0.074 | glycan array binding signal (z-score) [9]: -0.262 | glycan array binding signal (z-score) (GalNAc(b1-3)GalNAc): -0.341 | glycan array binding signal (z-score) (GalNAc(b1-3)GlcNAc): 0.006 | glycan array binding signal (z-score) (GalNAc(b1-4)Gal(b1-4)Glc): -0.331
